B1: LINE1-mini (parent)
chain: GGCAGAGCUCAACACAGCGUGGCAAAGUGGCUGUGGCUAGACUGCC

Read counts are not given, so values of variants with three or more changes are uncertain.

This series covers variants of B1. Briefly: self-cleavage, relative activity (ratio to wild type); higher = more cleavage; in vitro, sequencing; the parent is a self-cleaving ribozyme.
In the case of G1A A12C C18A G33A U34C C37A G44U, the self-cleavage turned out to be 0.08.
As for G2C G17C G30A A39U, the figure is 0.01.
As for A6G A25G G44U, the figure is 0; as for A6C U28G U34A G36U, 0.02.
As for A4C G5U C10A C31A G35A, the figure is 0.02; as for G21C G22C G44A C46U, 0.04.
G19C C31G G35C U38C: the self-cleavage worked out at 0.05.
As for U20A U32G C37U, the figure is 0.
As for C3G A4C C15U G27A G33U U38C A39G, the figure is 0.49.
As for G27C C37U A39U G40C, the figure is 0.37.
As for C13G A16U A26G, the self-cleavage stood at 0.06.
As for C8U C10G C15U C18G, the figure is 0.03; as for C8U A25U G27U A39U C46G, 0; as for C15U C42U C46G, 0.05.
As for U9A G27C G33U, the figure is 0.07; as for G5C C15A G27A A41C, 0.1.
The value for U20A C37U A41C was 0.02; that for A11C U32C G33A was 0.04.
A25C G36A C45G C46G: the self-cleavage was found to be 0.03.
As for G5A G7A A11C C46U, the self-cleavage was 0.03.
As to U28C U43G C46A, the self-cleavage was 0.2.
As for G30U C42A C46U, the figure is 0.05; as for U20C G21U G36A, 0.
As for C15A C18A G27U G40C, the figure is 0.04; as for G17U A39G G44A, 0.
Consider C13G U34A C45U, for which the self-cleavage was 0.06.
Take C10A A16C G21U C37A: the self-cleavage was determined as 0.01.
The value for G2U U20A G21A was 0.07; that for C3A G7A G30C was 0.44; that for A25G C42G C46U was 0.03.
The value for G21A A24G A41U was 1.26; that for A16U G35U U43G was 0.04; that for C3G C8U A11C G30U G33U C37A C42G was 0.04.
Consider U9C C23G G44A, for which the self-cleavage amounted to 0.02.
With G2C G7U C8A G17U A39U, the self-cleavage came out at 0.11.
The value for C3U U9A G27A U28A was 0.42; that for G1A G17U G35C G36A was 0.04.
As for G5U A6G G22C G33U G40U, the figure is 0; as for G2U C23A U38A, 0.03.
For G2A U20G U32C, the self-cleavage was 0.05.
As for G5U U9G C13A, the figure is 0.05.
With G7U A14G A26G G40C, the self-cleavage was determined as 0.01.
As for G7U C13A C42U, the figure is 0.29; as for U34A U38A C42A, 0.04; as for C13G U28G C45G, 0.03.
The value for C13A G30U A39G was 0.02; that for G7C C10U A39G C42G was 0.1.
The value for A6C G27A G29U was 0.28; that for G5C C13G A26U G36U was 0.02; that for G5C A16C U20G G21C A26U was 0.02.
A11U G19U G22C G27C C46A: the self-cleavage amounted to 0.03.
As for A25U G29A C46A, the figure is 1.02; as for A16U C31U G35U G36C G44A, 0.02; as for C3U U20G C31A G35U, 0.02.
As for G7A U9G U20G C23A A25G G27A G29C, the figure is 0.02; as for A12C G21U A25C A26C, 0.01; as for A6C C42A C45U, 0.07.
For the variant U9A U20G U38A G40U, the self-cleavage worked out at 0.1.
As for C13A A25G G35C C45A, the figure is 0.01; as for A4U U9C C23U U28C U38G, 0.01; as for U9C A12C A16U, 0.01.
As for G1A C13U A16U C23A C46G, the figure is 0.13; as for G22C G33A C37U, 0.03.
As for G2C A24U U28G G29A A41C C45U, the figure is 0.05; as for A4G C23A U32A, 0.51.
G17U U32G G44A: the self-cleavage stood at 0.07.
As for A14C G27A U38G, the figure is 0.06; as for U9G A11C G19A, 0.01; as for C10G G40C U43G, 0.02.
On to G5A G22A C42A, for which the self-cleavage worked out at 0.28.
The value for U28G G30U C31U was 0.51; that for C3G C18G G22C C31A was 0.04.
Take U9A C31G G35U: the self-cleavage was 0.02.
As for G5U U9C A16U G17A C37G G40A, the figure is 0; as for C15G A24U A26U, 0.07; as for G22U U28G G36A, 0.03.
Regarding G5C G21U C42U, the self-cleavage is 0.04.
With G1U C23A G30U, the self-cleavage came to 0.29.
The value for G27A U38C C42G G44A was 0.16; that for U38C C42U U43C was 0.22; that for C10A A12G U34A A39C was 0.04.
Turning to A11C C42G U43G C45G, the self-cleavage turned out to be 0.
A4C C10G A16U G21U C42A: the self-cleavage stood at 0.02.
As for G5A C15G G35C, the figure is 0.01.
As for C8A A12G G30A G40U, the figure is 0.03.
The value for G17A A24U U38G was 0.01; that for G2U U9G A24U G29U was 0.03.
As for A4U C8A U9G, the self-cleavage was found to be 0.32.
As for C3U U20G G29A, the figure is 0.19.
The value for C18A G27U G40A was 0.01.
As for C3G C15A G29U G44U C46G, the figure is 0.08; as for G1U A6G C23G A24U, 0.04.
Consider A12U C23A G35U U43G, for which the self-cleavage came out at 0.34.
As for G5A A14U G33A, the figure is 0.27.
The value for C10U A16G U34A C45U was 0.02; that for A4C C10A A14C A26G C31U was 0.01.
As for G17U A26C U43A, the figure is 0.22.
For the variant A4G C8U A12U, the self-cleavage came out at 0.34.
As for A6G A16G C18U, the figure is 0.03.
The value for C15U C23A C46G was 0.97; that for G7U G17C G19C A24U G27U was 0.04; that for A4C A12U U28C was 0.09.
As for G7A U20A G22C U38G, the figure is 0.01.
In the case of G1A G2C A6G C8G A11C C13A C18U G30A C31U, the self-cleavage came out at 0.
As for C15G G33C G36A C45G, the figure is 0.05.
As for G17C C18A G19U C31A C37G, the figure is 0.01; as for C15A A24U C37U C42A G44C, 0.06; as for G22C G35A U38A A39C, 0.09.
The value for A14C A24G C46A was 0.01; that for A14C G27U G40C was 0; that for G7A G17A G27U G29C was 0.1.
For C3G G5U C18G G30U C46U, the self-cleavage is 0.06.
The value for C8U G17U C23G A41G was 0.01; that for G7U C10A A11U G21A was 0.02.
As for C23G G29A A39U, the figure is 0.29; as for G22U C23G G35C C42G, 0.02.
The value for C8G G29A G30A was 0.14; that for G5C C10A A12U A24U was 0.02.
With G2A U34C A39C, the self-cleavage is 0.13.
The value for C31A G36U C42G was 0.03.
Regarding G2U G17U G30U C45U C46G, the self-cleavage is 0.04.
As for G2A A41G U43G, the figure is 0.14; as for C10A G27C G29C C42G C45A, 0.
As for C15A G29A C37U, the figure is 0.01; as for G1A A12C A14U, 0.01; as for C8G U9A C13A G35C, 0.08.
As for A4U U20G G21U G29A C45U, the figure is 0.14.
Turning to C10A G27C G36U C46A, the self-cleavage is 0.01.
The value for A4C C23A G36U was 0.06; that for A11C C18A A39G was 0.16.
The value for C8U G30U U38A was 0.26.
As for C13A C23G C45A, the figure is 0.2; as for G7U A11C C13G C23G U32G, 0.
As to G1A A14C U34C, the self-cleavage amounted to 0.02.
The value for U34C G40U C45A was 0.09; that for U9A A39C C45U was 0.13.
As for G7U A26G A41C U43C, the figure is 0.32; as for C3A G36U G40U, 0.08; as for G7C A14C G19A C23A U32G, 0.02.
The value for G2A G17C C18A C42A was 0.09; that for A14G G21U U28A G30U U32A C46G was 0.01; that for G19U G29C G33U C37U A39G was 0.04.
Turning to C15U C31U G36U U38C A41G, the self-cleavage worked out at 0.02.
The value for G7U C8U A12C U20G G33U C42G was 0.09; that for U34A A39G G44A was 0.03; that for C13U G17U U20G A24G G27A was 0.1.
Regarding C18G G21C C23U U38G, the self-cleavage was found to be 0.03.
As for G1U A4C U20A, the figure is 0.02.
As for C10A A26C G35U, the figure is 0.01.
The value for C3U G22U C37A G44U was 0.69; that for A11C G17U U20A G29C G36U A41G was 0.
Turning to A14C G22A G40C, the self-cleavage turned out to be 0.01.
On to G19A G33A G44C, for which the self-cleavage was found to be 0.02.
C8U G19C U38C: the self-cleavage is 0.02.
As for C3A G5C C13A A26G G27A, the figure is 0.15; as for A16C U34G G35A G40U, 0.01.
As for G19U G30A A39U C42U G44A, the figure is 0.05; as for C3U U9G G22C C23U G44A, 0.02.
For A6U G7U C10A G22C C31A U34A C46U, the self-cleavage stood at 0.01.
The value for C3A A4G G29C was 0.17; that for C10A C13U C15U G29A U38G G40C was 0.03.
As for G21U A24C G36U C37U, the figure is 0.03; as for C8G G21U U43A C45U, 0.07.
In the case of G27A U32A C42G, the self-cleavage came out at 0.08.
The value for C15U G17A G29U was 0.05; that for C13A A26G U43G C45A was 0.05.
The value for C13G A26C U34A G35U was 0.14.

(Values after the RNAGym collection of RNA variant scans (doi:10.7554/elife.90254).)
